# Data reported in the supplement of paper PMC6451100.
# This is one part of the list. These are enrichments in a pooled selection; single values are uncertain.
# Molecular target: T1, Drosophila AGO2 (FLAG-tagged, S2-R+ lysate) (UniProt Q9VUQ5)
# T1 sequence: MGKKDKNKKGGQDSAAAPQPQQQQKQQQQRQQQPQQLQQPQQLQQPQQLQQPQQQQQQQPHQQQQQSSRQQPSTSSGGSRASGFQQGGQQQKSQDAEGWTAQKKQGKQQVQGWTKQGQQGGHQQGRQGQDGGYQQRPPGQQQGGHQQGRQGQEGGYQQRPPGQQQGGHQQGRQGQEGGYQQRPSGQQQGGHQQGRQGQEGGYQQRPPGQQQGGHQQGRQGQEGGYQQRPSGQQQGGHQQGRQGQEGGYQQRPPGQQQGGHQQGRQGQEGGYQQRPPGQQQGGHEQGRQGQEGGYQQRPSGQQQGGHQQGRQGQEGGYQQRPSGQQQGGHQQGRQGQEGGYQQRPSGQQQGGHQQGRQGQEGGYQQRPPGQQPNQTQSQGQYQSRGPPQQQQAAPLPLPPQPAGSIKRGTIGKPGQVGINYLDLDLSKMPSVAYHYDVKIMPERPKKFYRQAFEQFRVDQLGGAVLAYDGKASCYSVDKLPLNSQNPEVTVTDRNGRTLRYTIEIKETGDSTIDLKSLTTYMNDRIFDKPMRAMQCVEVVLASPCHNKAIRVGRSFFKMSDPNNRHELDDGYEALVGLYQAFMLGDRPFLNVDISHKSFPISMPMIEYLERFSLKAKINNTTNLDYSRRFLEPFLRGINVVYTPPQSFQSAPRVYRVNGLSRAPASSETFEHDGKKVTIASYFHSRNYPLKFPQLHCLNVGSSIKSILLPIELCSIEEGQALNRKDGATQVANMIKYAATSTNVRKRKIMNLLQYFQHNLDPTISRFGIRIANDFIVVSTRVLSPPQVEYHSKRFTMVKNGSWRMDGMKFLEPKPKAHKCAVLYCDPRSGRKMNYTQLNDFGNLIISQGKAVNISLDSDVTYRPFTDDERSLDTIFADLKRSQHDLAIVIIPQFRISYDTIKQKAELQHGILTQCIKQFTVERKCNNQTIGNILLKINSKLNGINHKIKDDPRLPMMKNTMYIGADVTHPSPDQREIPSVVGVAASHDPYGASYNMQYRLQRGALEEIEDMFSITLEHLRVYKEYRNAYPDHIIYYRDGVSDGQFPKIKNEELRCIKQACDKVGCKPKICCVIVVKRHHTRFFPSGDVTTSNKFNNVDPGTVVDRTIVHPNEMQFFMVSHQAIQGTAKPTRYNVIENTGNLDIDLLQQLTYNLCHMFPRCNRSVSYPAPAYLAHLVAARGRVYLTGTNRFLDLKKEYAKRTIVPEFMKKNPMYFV
# Experiment: AGO2 loading enrichment factor (IP read count / input read count, not library-size normalised) (ratio); higher = more efficient loading into AGO2
# Conditions: randomized region: 5' 5N of miR-317 loop
# 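Further: Per-sequence enrichment computed with FASTAptamer, counting only reads that carry the expected constant 3′ region.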
row,Sequence,AGO2 loading enrichment factor
1,ATTGATGAAATGCAAGCAAG,0.369
2,TTGAGTGAAATGCAAGCAAG,0.508
3,TCAGGTGAAATGCAAGCAAG,0.532
4,AGGACTGAAATGCAAGCAAG,0.647
5,TTTGCTGAAATGCAAGCAAG,1.27
6,GCTGGTGAAATGCAAGCAAG,0.0728
7,TTAATTGAAATGCAAGCAAG,0.438
8,TCAAATGAAATGCAAGCAAG,0.402
9,CATACTGAAATGCAAGCAAG,0.232
10,ACCGATGAAATGCAAGCAAG,0.359
11,CAATCTGAAATGCAAGCAAG,0.388
12,CCTAGTGAAATGCAAGCAAG,0.259
13,CTAAGTGAAATGCAAGCAAG,0.474
14,GGGATTGAAATGCAAGCAAG,1.9
15,AAAGCTGAAATGCAAGCAAG,0.0951
16,ATAACTGAAATGCAAGCAAG,0.471
17,ATGATTGAAATGCAAGCAAG,0.446
18,TATAGTGAAATGCAAGCAAG,0.384
19,GAAACTGAAATGCAAGCAAG,0.404
20,GCGTGTGAAATGCAAGCAAG,0.0387
21,GACTGTGAAATGCAAGCAAG,0.144
22,CATTATGAAATGCAAGCAAG,0.245
23,CCGCTTGAAATGCAAGCAAG,0.274
24,GAGAATGAAATGCAAGCAAG,0.504
25,ATTAGTGAAATGCAAGCAAG,0.408
26,ACACGTGAAATGCAAGCAAG,0.377
27,TTTCCTGAAATGCAAGCAAG,0.786

row,Sequence,AGO2 loading enrichment factor
1,ATGGGTGAAATGCAAGCAAG,2
2,GTAAATGAAATGCAAGCAAG,0.491
3,CCTACTGAAATGCAAGCAAG,0.3
4,GGATGTGAAATGCAAGCAAG,0.718
5,GGTTGTGAAATGCAAGCAAG,0.171
6,ACACCTGAAATGCAAGCAAG,0.321
7,AATAGTGAAATGCAAGCAAG,0.352
8,GATAATGAAATGCAAGCAAG,0.421
9,ACTCTTGAAATGCAAGCAAG,0.137
10,ATAAGTGAAATGCAAGCAAG,0.471
11,CATATTGAAATGCAAGCAAG,0.265
12,TGACGTGAAATGCAAGCAAG,0.357
13,CCGGTTGAAATGCAAGCAAG,0.482
14,CCGTGTGAAATGCAAGCAAG,0.439
15,CGTCGTGAAATGCAAGCAAG,0.638
16,GTTGTTGAAATGCAAGCAAG,0.573
17,TCCATTGAAATGCAAGCAAG,0.477
18,TAGAATGAAATGCAAGCAAG,0.363
19,TGAGCTGAAATGCAAGCAAG,0.138
20,ATCCCTGAAATGCAAGCAAG,0.462
21,TACTGTGAAATGCAAGCAAG,0.261
22,GCACATGAAATGCAAGCAAG,0.208
23,CGTCCTGAAATGCAAGCAAG,0.329
24,CCAAGTGAAATGCAAGCAAG,0.411
25,AGTAGTGAAATGCAAGCAAG,0.353
26,TGCAGTGAAATGCAAGCAAG,0.0708
27,TCGTGTGAAATGCAAGCAAG,0.526
